# Results published in article PMC4336329 (PLoS ONE, 2015).
# Out of some 310,000 compounds screened, about 14,000 (4.5%) showed an effect of 50% or more. The effect is printed as a negative number. The list shows a part of the results.
# Target: human ether-à-go-go-related gene (hERG) potassium channel (human, UniProt Q12809)
# Experiment: primary screen, population patch clamp on CHO cells stably expressing hERG
# 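Note: peak tail current of the secondary pulse compared with the same well before compound.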
# human ether-à-go-go-related gene (hERG) potassium channel, sequence (Q12809 whole entry, looked up): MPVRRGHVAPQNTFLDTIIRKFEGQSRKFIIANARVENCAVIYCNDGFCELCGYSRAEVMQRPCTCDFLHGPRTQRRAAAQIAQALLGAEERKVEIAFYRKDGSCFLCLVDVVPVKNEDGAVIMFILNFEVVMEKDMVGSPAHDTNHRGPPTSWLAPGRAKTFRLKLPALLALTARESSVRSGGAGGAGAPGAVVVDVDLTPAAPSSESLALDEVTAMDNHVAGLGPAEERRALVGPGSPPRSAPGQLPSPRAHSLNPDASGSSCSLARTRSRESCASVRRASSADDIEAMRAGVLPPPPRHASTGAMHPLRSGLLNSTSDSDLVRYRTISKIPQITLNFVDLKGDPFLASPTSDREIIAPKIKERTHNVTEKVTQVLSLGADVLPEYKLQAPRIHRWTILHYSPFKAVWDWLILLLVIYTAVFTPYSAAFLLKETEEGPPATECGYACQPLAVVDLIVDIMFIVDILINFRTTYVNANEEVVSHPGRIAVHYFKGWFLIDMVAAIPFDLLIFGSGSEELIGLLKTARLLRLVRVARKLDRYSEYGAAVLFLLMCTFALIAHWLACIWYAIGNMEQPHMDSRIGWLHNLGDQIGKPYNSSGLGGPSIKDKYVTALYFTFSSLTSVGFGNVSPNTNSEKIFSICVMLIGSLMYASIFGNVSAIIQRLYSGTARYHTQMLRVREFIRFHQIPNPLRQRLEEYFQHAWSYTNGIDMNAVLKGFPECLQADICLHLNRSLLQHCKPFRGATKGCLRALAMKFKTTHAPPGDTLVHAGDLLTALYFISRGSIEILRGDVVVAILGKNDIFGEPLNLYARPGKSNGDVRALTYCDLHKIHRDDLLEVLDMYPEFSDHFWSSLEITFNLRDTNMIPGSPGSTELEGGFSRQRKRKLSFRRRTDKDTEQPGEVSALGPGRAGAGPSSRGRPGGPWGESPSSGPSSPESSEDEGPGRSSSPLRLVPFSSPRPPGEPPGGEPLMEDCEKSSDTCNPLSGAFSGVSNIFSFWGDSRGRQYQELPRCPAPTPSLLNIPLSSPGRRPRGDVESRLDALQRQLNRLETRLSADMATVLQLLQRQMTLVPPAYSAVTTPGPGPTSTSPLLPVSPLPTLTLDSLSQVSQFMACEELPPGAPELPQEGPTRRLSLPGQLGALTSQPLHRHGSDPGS
row,Compound,"hERG current change (%, negative = inhibition) at 10uM [%]"
1,CCC(C)CCN1C(N(C)C)=NC[C@@H]1CC(C)C (stereo partly shown),-11
2,Cc1ccc(C)c(C(=O)C(C)Sc2nc3nn(-c4ccccc4)c(=O)c-3c3n2CCCCC3)c1 (stereo not shown),4.97
3,CC(=O)c1ccc(N2C(=NC(=O)C3CCCO3)SC3CS(=O)(=O)CC32)cc1 (stereo not shown),-39.7
4,Cc1ccc(NC(=O)c2ccc(Cl)c(S(=O)(=O)N3CCCCCC3)c2)nc1,-57.9
5,CC(C)COC(=O)c1ccccc1N1C(=O)C2C3CCC(C3)C2C1=O (stereo not shown),9.64
6,Oc1ccc(C[C@H]2CNC(=S)N2CCc2cc(C(F)(F)F)cc(C(F)(F)F)c2)cc1,-8.02
7,COc1ccc(C(=O)NCCc2ccccc2)cc1OC,7.71
8,COC(=O)c1cc(NCc2ccccc2F)ccc1N1CCOCC1,-19.4
9,Cc1ccc(S(=O)(=O)N2CCCC2C(=O)n2nc(C)cc2C)cc1 (stereo not shown),1.87
10,COc1cccc(-c2ccc(NC(=O)C3CCCN(Cc4ccco4)C3)cc2)c1 (stereo not shown),6.02
11,COc1ccc(NC(=O)c2ccccc2F)cc1Cl,7.22
12,CSCCC(NS(=O)(=O)c1ccccc1F)C(=O)N1CCCCCCC1 (stereo not shown),-8.16
13,CC(C)c1ccc(S(=O)(=O)N2CCN(C(=O)C3CCN(C(=O)c4ccc(F)cc4)CC3)CC2)cc1,-53.7
14,CCOC(=O)c1c(O)c2cccc3c2n(c1=O)CC3,8.82
15,CO.COc1ccc(C(=O)Nc2ccc(/C(C)=N/NC(=O)c3ccccc3O)cc2)cc1OC,6.18
16,O=C(Nc1ccc(S(=O)(=O)Nc2nccs2)cc1)c1ccc(F)c(S(=O)(=O)N2CCOCC2)c1,-33.1
17,Cc1csc(NC(=S)NC(=O)c2ccccc2)n1,11
18,Cc1nc(NC(=O)COC(=O)/C=C/c2ccco2)c(Cl)cc1Cl,8.52
19,N/C(=N\c1nc2ccccc2o1)NC(=O)c1cccc(Cl)c1,8.97
20,CCC1Sc2ccc(S(=O)(=O)Nc3cc(OC)cc(OC)c3)cc2NC1=O (stereo not shown),3.4
21,COC(=O)c1scc(S(=O)(=O)C(C)(C)C)c1N,5.79
22,COc1ccc(-c2csc(COC(=O)C(C)(C)C)n2)cc1,18

row,Compound,"hERG current change (%, negative = inhibition) at 10uM [%]"
1,O=C(N=C1N=C2C=CC=CN2Cc2ccccc21)c1ccc(S(=O)(=O)N2CCCC2)cc1,13.8
2,O=C(COC(=O)CNC(=O)c1ccccc1F)Nc1ncc(Cl)cc1Cl,-3.8
3,CC1(C)C=Cc2c(ccc3c2OC[C@H](c2ccc(O)cc2O)C3)O1,17.7
4,Cc1ccc(C(=O)CSc2nc(C(C)C)nc3ccccc23)cc1,20.6
5,CC(C)(C)NS(=O)(=O)c1ccc(CCC(=O)N2CCCCC2)cc1,-10.2
6,COc1cc(OC)c(OC)cc1CNC1CCCCCC1,-5.57
7,CCn1c(SCC(=O)Nc2ccccc2OC)nnc1-c1cnccn1,-25.4
8,CS(=O)(=O)CCC(C(=O)OCc1ccc(Br)cc1)N1C(=O)c2ccccc2C1=O (stereo not shown),-0.0845
9,COc1nc2ccccc2c(=O)n1-c1ccc(C)cc1,-2.06
10,CCCCn1c(N)c(N(CC(C)C)C(=O)CC(NC(=O)c2ccccc2)c2ccccc2)c(=O)[nH]c1=O (stereo not shown),1.68
11,Cc1ccccc1N1CCN(C2CCCN(C(=O)CCc3c(C)noc3C)C2)CC1 (stereo not shown),-46.3
12,O=C(NCC(=O)N(c1ccccc1)C(C(=O)NC1CCCC1)c1ccncc1)c1cccs1 (stereo not shown),12.1
13,CC1(C)O[C@@H]2[C@H](O1)[C@@H](COS(=O)(=O)[O-])O[C@H]2n1cnc2c(N)ncnc21.[K+],15.7
14,CCC/C(=C1/c2ccccc2C(=O)N1c1ccccc1)c1ccc2c(c1)OCCO2,20.3
15,COc1cccc(/C=N/NC(=O)c2ccc(N3CCCC3=O)cc2)c1,-19.8
16,CC(SC1=NCCN1S(=O)(=O)c1ccc(F)cc1)c1ccccc1 (stereo not shown),11.9
17,CCOc1cccc(NC(=O)C2CC(=O)N(C)C(=Nc3ccccc3)S2)c1 (stereo not shown),1.54
18,COc1cccc(N2CC34C=CC(O3)C(C(=O)O)C4C2=O)c1 (stereo not shown),17.8
19,COc1ccc(N2CCN(CC(=O)N3N=CCC3c3ccccc3)CC2)cc1 (stereo not shown),-2.49
20,CN(C(=O)c1c(Cl)cnn1C)C12CC3CC(CC(C3)C1)C2,-7.48
21,Cc1cc(OC(=O)c2c(C)cc(O)cc2O)cc(O)c1C(=O)O,20.9
